Source: patent US11795481B2, “Processes for producing a fermentation product” (Novozymes A/S, priority 2017, dated 2023)

B1: Penicillium sp-52627: Penicillium sp-52627 AA13 polypeptide of SEQ ID NO: 142 (protein)
chain: MKFTCLLALAGTLATVDAHGYLTIPSSRTRLGFEAGIDTCPECSILEPVESWPDLEAAQVGRSGPCGYNARVSVDYNQPGDYWGNSVVATYTGGDTVEVQWCVDNNGDHGGMFTYGICQNQTLVDLFLDPDYLPSTDEKQLAEDCFLEGELKCTDVDGQTCGYNPDCTSDEACYRNDWFTCNAFAATTNRGCEGVDGAAEYSCTTTISGGYTVTKKIKIPDYESDHTLLRFRWNSYQTGQIYLHCADIAISGSGSGSDSSTTSSSTATTSKATSTTSTATTTSTCTAATSISVTFDELVTTTYGENVYISGSISQLGSWDTSSAVALSASSYTSSNPLWMATISLPVGTSFEYKFIKKETDGSIVWESDPNRSYTVPTGCSGATATVSATWR
modifications: Penicillium sp-52627
B2: Myrothecium sp.: Myrothecium sp AA13 polypeptide of SEQ ID NO: 133 (protein, listed as Myrothecium sp.)
chain: MKTTTIVPFLSLVSQVVGHGYMVIPSSRTRLGAEAKLDSCPECTILEPVSAWPDLDVAQVGRSGPCGYNARVSIDYNRPSANWGTKPVATYTPGQTVDVQWCVDNNGDHGGMFSWRVCHDQAIVDKLLDPDRTPTDAEKQAAEDCFEAGLLPCTDVSGQSCGYSPDCTQGQACWRNDWFTCNAFSGDSGKRGCQGVDGSALGSCYTSIAGGYTVTKKVKMPEIVSNHTLLSLRWNSFQTGQVYLTCADIAITDSGSGGTPTNPNPPTTTTCAAGASVKVTFNEQVKTVVGDSVRLVGSTAQLGSWDATKGVALSADKYTDAKPLWSATVEMAPGTQFSYKFVKVASGGAVTWESDPNRAYTVPTDCSKAYTLESTWK
B3: Pestalotiopsis sp-71627: Pestalotiopsis sp-71627 AA13 polypeptide of SEQ ID NO: 148 (protein)
chain: MFALPALLFAASVSGHGYLTIPSSRTRLGFEAGTDTCPECTILEPVSSWPDLDVAAVGRSGVCGYNARVSVDYNFPASTWGSNTVATYSPGQIVDVQWCVDNNGDHGGMFSYRICQDQSVVDKFLTPGYIPTDAEKQAGEDCFDAGLLPCTDVSGQVCDYSPDCTAGQACYRNDWFTCNAFGATDRRGCEGVDNAPLNSCKTTIAGGYTVSKQIKIPDYVSNHTLLQFKWNSFQTGQIYISCADIAISGSGSSPAPAPGTTLTTSKTTATTTSTKTTTSAASTSTATCVAAANVAVTFNEVVTTAYGETIKIAGSIAALGSWDPSSAPALSASAYTTANPLWSRTVSLPAGTAFEYKFVRVSASGAITWESDPNRSYTVPTCGSTATVGTSWK
modifications: Pestalotiopsis sp-71627

system: multi-strain LAB culture; assay: SSF of control mash with 1% w/w infected mash, AA13 candidates, HPLC of organic acids and ethanol (Example 3); assay type: cell-based; settings: AA13 dose 10 ug/g-DS; SSF 32° C. up to 24 hours, 20% DS
Description: A control mash was prepared in-house with an industry relevant blend of AA369 and Protease Pfu using a Lab-O-Mat incubator for 2 hours at 85° C. and 36% DS to simulate typical industry conditions. The mash was then frozen prior to use in SSF. An infected mash was prepared by infecting the control mash with a multi-strain LAB culture grown in MRS. The bacteria in control mash was incubated overnight, and then frozen with 20% glycerol. For this experiment, 1% weight/weight of the infected mash was mixed into the control mash. This mimics an infection event at a large-scale ethanol facility. For SSF, all mash was prepared with 1000 ppm of urea to aid with yeast fermentation. All treatments were dosed with a baseline commercial glucoamylase GSA, while AA13 candidates were dosed at either 10 ug/g-DS or 50 ug/g-DS. SSF was performed at 5 g scale with 10 uL/g rehydrated Ethanol Red yeast at 32° C. for up to 24 hours at 20% DS. At the end of fermentation, samples were deactivated with 50 uL of 40% sulfuric acid and then centrifuged. The supernatant was filtered through a 0.2 μm filter and then measured for soluble carbohydrates and organic acids using an ion-exchange H-column on HPLC.

B1 and B2 are within 1.5-fold of each other in “average Ethanol” value: 77.6 g/L for the first, 77.9 g/L for the second.

For B3, the “average Ethanol” value was 78.0 g/L.

B1 and B2 are within 1.5-fold of each other in “average Lactic Acid” value: 3.4 g/L for the first, 3.3 g/L for the second.

In the case of B3, the “average Lactic Acid” value is reported as 3.3 g/L.

same assay, conditions: AA13 dose 10 ug/g-DS; vs No Treatment; SSF 32° C. up to 24 hours, 20% DS

First: B1
Second: B2
The “% delta Ethanol” value of the first is lower: 0.0% for the first, 0.4% for the second.

In the case of B3, the “% delta Ethanol” value is reported as 0.5%.

First: B1
Second: B2
The “% delta Lactic Acid” value of the first is higher: 3.9% for the first, −0.8% for the second.

In the case of B3, the “% delta Lactic Acid” value is reported as 0.0%.

same assay, conditions: AA13 dose 50 ug/g-DS; SSF 32° C. up to 24 hours, 20% DS

B1 and B2 are within 1.5-fold of each other in “average Ethanol” value: 77.7 g/L for the first, 78.2 g/L for the second.

In the case of B3, the “average Ethanol” value is reported as 78.0 g/L.

B1 and B2 are the same in “average Lactic Acid” value: 3.3 g/L for the first, 3.3 g/L for the second.

For B3, the “average Lactic Acid” value was 3.4 g/L.

same assay, conditions: AA13 dose 50 ug/g-DS; vs No Treatment; SSF 32° C. up to 24 hours, 20% DS

Compared with B1, B2 is higher in “% delta Ethanol” value: 0.1% for the first, 0.7% for the second.

For B3, the “% delta Ethanol” value was 0.4%.

Compared with B1, B2 is lower in “% delta Lactic Acid” value: 0.8% for the first, −0.9% for the second.

With B3 the “% delta Lactic Acid” value was 2.9%.
